Data published in PubChem BioAssay AID686979 (National Center for Advancing Translational Sciences (NCATS), 2013).
Screen size: about 420,000 compounds; about 50,000 (12%) were called active. This list was built around the results that the source calls inconclusive (neither active nor inactive); the mix of calls is not that of the screen. Calls follow the shape of the dose curve; as a rule, active = well fitted inhibition curve with a large enough effect; inconclusive = small, poorly fitted or top-dose-only effect; inactive = flat fitted curve, though single readings scatter. Potencies of inconclusive entries are left out as doubtful fits.

test: qHTS for Inhibitors of human tyrosyl-DNA phosphodiesterase 1 (TDP1): qHTS in cells in presence of CPT; settings: chicken DT40 Tdp1-/-;hTDP1 cells + 20 nM CPT, ATP luminescence, 48 h; activity change, negative = growth inhibition: at 46.2 µM (top of the series) unless noted; also: nearly all actives have a fitted effect of over 55% in size
Procedure, shortened: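 Chicken DT40 Tdp1-/- cells complemented with human TDP1, 400 cells/well, exposed to compounds plus 20 nM camptothecin for at least 48 h at 37 C; viability read as ATP content by CellTiter-Glo luminescence.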
% is scaled to controls: 0 for no effect and ±100 for the full control effect; potency is read from the fitted curve at half-maximal effect; tags tell the direction and shape of the fitted curve.

**Q.** Which Potency does the source give for O=C(NC(=S)Nc1ccc(S(=O)(=O)N2CCCC2)cc1)c1cccs1 here?
**A.** Its Potency is inconclusive [inhibitor, partial curve].

**Q.** Which Potency does the source give for CCN(c1ccccc1)S(=O)(=O)c1cc(C(=O)Nc2cccc(Cl)c2)ccc1F here?
**A.** The Potency was inconclusive [inhibitor, single point].

**Q.** With O=C(C=Cc1ccco1)c1cc(Cl)ccc1O as the molecule, how does the Potency read?
**A.** Its Potency is inconclusive [inhibitor, single point].

**Q.** Which Potency does the source give for CCc1c(N)nc(N)nc1Nc1ccccc1C here?
**A.** The Potency was inconclusive [inhibitor, partial curve].

**Q.** For Cc1cc(SCC(=O)OC/C(O)=C(\C#N)c2nc3ccccc3[nH]2)c(C)cc1Br, which Potency is on record?
**A.** Its Potency is inconclusive [inhibitor, single point].

**Q.** With CCC(=O)c1ccc(OCC(=O)Nc2cc(S(=O)(=O)N3CCCCC3)ccc2N2CCN(CC)CC2)cc1 as the molecule, how does the Potency read?
**A.** The Potency was inconclusive [inhibitor, single point].

**Q.** With COc1cccc(CNC(=O)[C@H](CCSC)NC(=O)N2CCn3c2nc2ccccc23)c1 as the molecule, how does the Potency read?
**A.** The Potency was inconclusive [inhibitor, single point].

**Q.** For Cc1cc(Cl)c(S(=O)(=O)NC2CCCCC2)cc1OCC(=O)Nc1nncs1, which Potency is on record?
**A.** Its Potency is active: 25.9 µM.

**Q.** Which Potency does the source give for CC(=C/c1ccccc1)/C=C1/SC(N2CCOCC2)=NC1=O here?
**A.** Its Potency is inconclusive [inhibitor, partial curve].

**Q.** Which “activity change, negative = growth inhibition” value does the source give for NC(c1ccc(F)c(F)c1)c1nc(-c2cncnc2)cs1 (configuration not stated) here?
**A.** The value was inactive: -17.8%.

**Q.** Which “activity change, negative = growth inhibition” value does the source give for Cc1ccc2c(cnn2C(=O)CCC(=O)NCc2cccc(Cl)c2)c1 here?
**A.** The value was inactive: -14.9%.

**Q.** For Cc1cc(C)c(NS(=O)(=O)c2ccc3c(c2)NC(=O)CCS3)c(C)c1, which Potency is on record?
**A.** Its Potency is inconclusive [inhibitor, single point].

**Q.** Which Potency does the source give for Cc1csc(NC(=O)c2c(-c3c(F)cccc3Cl)noc2C)n1 here?
**A.** Its Potency is inconclusive [inhibitor, single point].

**Q.** For COC(=O)C1CN(C(=O)C(C)Oc2cccc(C)c2C)c2ccccc2O1 (configuration not stated), which “activity change, negative = growth inhibition” value is on record?
**A.** The value was inactive: 4.91%.

**Q.** With COc1ccc(C2=CC(=O)C[C@H](COCc3ccccc3)N(C(=O)OC(C)(C)C)O2)cc1 as the molecule, how does the Potency read?
**A.** Its Potency is inconclusive [inhibitor, single point].

**Q.** With COC(=O)C1=C(C)NC(C)=C([N+](=O)[O-])[C@@H]1c1ccccc1C(F)(F)F as the molecule, how does the Potency read?
**A.** The Potency was active: 29.9 µM.

**Q.** Which “activity change, negative = growth inhibition” value does the source give for CCOC(=O)N1CCN(C(=O)Nc2ccc(Cl)cc2Cl)CC1 here?
**A.** The value was inactive: -3.94%.

**Q.** For CCOc1ccc2[nH]c3c(NCCCOC)ncnc3c2c1, which Potency is on record?
**A.** The Potency was inconclusive [inhibitor, single point].

**Q.** For CCc1ccccc1NS(=O)(=O)c1ccc(SC)cc1, which Potency is on record?
**A.** The Potency was inconclusive [inhibitor, partial curve].

**Q.** With CCOc1ccc(C(C)=O)cc1CSc1nnc(-c2cccs2)n1CC1CCCO1 (configuration not stated) as the molecule, how does the Potency read?
**A.** Its Potency is inconclusive [inhibitor, single point].

**Q.** With O=c1c2ccccc2oc2cc(-c3ccc(CN4CCOCC4)cc3)ccc12 as the molecule, how does the Potency read?
**A.** Its Potency is active: 13 µM.

**Q.** Which Potency does the source give for Cc1ccc2c(CSc3nc4ccccc4c(=O)n3CCCO)cc(=O)oc2c1C here?
**A.** The Potency was inconclusive [inhibitor, single point].

**Q.** With C=C1C(=O)OC2C=C(CO)CCC=C(CO)CC(OC(=O)C(C)C)C12 (configuration not stated) as the molecule, how does the Potency read?
**A.** Its Potency is active: 2.91 µM.

**Q.** With COc1ccc(C)cc1N1CC(C(=O)OCc2nc(N)nc(Nc3ccccc3C)n2)CC1=O (configuration not stated) as the molecule, how does the “activity change, negative = growth inhibition” value read?
**A.** Its value is inactive: -4.67%.

**Q.** With Cc1c(N=Cc2ccc(O)c(Br)c2)cccc1[N+](=O)[O-] as the molecule, how does the “activity change, negative = growth inhibition” value read?
**A.** Its value is inactive: -0.911%.

**Q.** For Cc1ccc(N(C)S(=O)(=O)c2cc3c(cc2C)NC(=O)CO3)cc1, which Potency is on record?
**A.** The Potency was inconclusive [inhibitor, single point].

**Q.** Which “activity change, negative = growth inhibition” value does the source give for COc1ccc(NC(=O)N2CCC3(CC2)CCN(S(=O)(=O)c2ccccc2)CC3)cc1 here?
**A.** Its value is inactive: -7.62%.

**Q.** With COc1cccc(CNc2ccc([N+](=O)[O-])cc2Cl)c1O as the molecule, how does the Potency read?
**A.** The Potency was inconclusive [inhibitor, single point].

**Q.** Which “activity change, negative = growth inhibition” value does the source give for C=C(C)Cn1c(-c2cccs2)n[nH]c1=S here?
**A.** The value was inactive: -13.2%.

**Q.** Which “activity change, negative = growth inhibition” value does the source give for Cc1nn(CC(=O)OCC(=O)c2ccccc2)c(C)c1[N+](=O)[O-] here?
**A.** The value was inactive: -20.2%.

**Q.** Which “activity change, negative = growth inhibition” value does the source give for O=C(Nc1ccccc1)C1C2CCCCC21 (configuration not stated) here?
**A.** Its value is inactive: -25.1%.

**Q.** With CCCCn1c(SCC(=O)c2ccccc2)nc2ccsc2c1=O as the molecule, how does the Potency read?
**A.** Its Potency is inconclusive [inhibitor, single point].

**Q.** With COc1ccc(C2=NN(S(C)(=O)=O)C(c3cn(-c4ccccc4)nc3-c3cccs3)C2)cc1 (configuration not stated) as the molecule, how does the “activity change, negative = growth inhibition” value read?
**A.** The value was inactive: 10.3%.

**Q.** Which Potency does the source give for O=C(O)/C=C/c1ccc(S(=O)(=O)NCc2cccnc2)cc1 here?
**A.** Its Potency is inconclusive [inhibitor, single point].

**Q.** Which activity change, negative = growth inhibition does the source give for Cc1ccc(-n2c(C)cc(/C=N\NC(=O)CC(=O)NC(C)C)c2C)cc1 here?
**A.** Its activity change, negative = growth inhibition is inconclusive: -33% [inhibitor].

**Q.** With CC(C)Oc1ccc(CN=C(N)N=C(N)N)cc1Cl as the molecule, how does the Potency read?
**A.** Its Potency is inconclusive [inhibitor, partial curve].

**Q.** With COc1cccc(N2CCN(S(=O)(=O)c3ccc4c(c3)CC(C)N4C(=O)C3CC3)CC2)c1 (configuration not stated) as the molecule, how does the Potency read?
**A.** Its Potency is inconclusive [inhibitor, partial curve].

**Q.** For CCN(CC)S(=O)(=O)c1cccc(C(=O)/C=C2/N(C)c3ccccc3C2(C)C)c1, which Potency is on record?
**A.** Its Potency is active: 20.6 µM.

**Q.** With Cc1c(C)c2cc3c4c(oc3c(C)c2oc1=O)CCCC4 as the molecule, how does the Potency read?
**A.** The Potency was inconclusive [inhibitor, single point].

**Q.** For C[C@@H]1CN([C@H](C)CO)S(=O)(=O)c2ccc(C#Cc3ccccc3)cc2O[C@@H]1CN(C)C(=O)CN(C)C, which Potency is on record?
**A.** The Potency was active: 16.4 µM.

**Q.** With C=CCC1(CC=C)CCCN1C(=O)C1CCC(=O)N(CCc2ccc(OC)cc2)C1 (configuration not stated) as the molecule, how does the Potency read?
**A.** Its Potency is active: 11.6 µM.

**Q.** With OC(CN1CCN(Cc2ccccc2)CC1)Cn1c2ccccc2c2ccccc21 (configuration not stated) as the molecule, how does the Potency read?
**A.** Its Potency is active: 23.1 µM.

**Q.** With Cc1ccc(-c2c(C#N)c(N)n(-c3ccc(C)cc3)c(=O)c2C#N)cc1 as the molecule, how does the Potency read?
**A.** The Potency was inconclusive [inhibitor, single point].

**Q.** Which Potency does the source give for O=C(Cn1cnc2c(OCc3ccccc3)ncnc21)NCc1ccccc1 here?
**A.** The Potency was inconclusive [inhibitor, single point].

**Q.** Which “activity change, negative = growth inhibition” value does the source give for O=C(C1CCC(Cn2c(=S)[nH]c3ccccc3c2=O)CC1)N1CCOCC1 (configuration not stated) here?
**A.** The value was inactive: -1.65%.

**Q.** Which Potency does the source give for CNCc1ccccc1Sc1ccc(O)c(O)c1 here?
**A.** Its Potency is active: 2.59 µM.

**Q.** For COc1ccc(C(=O)NCC(c2ccc3c(c2)OCO3)N2CCOCC2)cc1 (configuration not stated), which Potency is on record?
**A.** Its Potency is inconclusive [inhibitor, single point].
